Test results reported in PubChem BioAssay AID1457 (National Center for Advancing Translational Sciences (NCATS), 2008).
Among all 210,000 compounds or so, about 730 (0.35%) were called active. Inconclusive results, whose numbers are uncertain, are shown with a selection of clear calls. Calls follow the shape of the dose curve; as a rule, active = well fitted inhibition curve with a large enough effect; inconclusive = small, poorly fitted or top-dose-only effect; inactive = no such curve, though single readings can be large or run the other way. A potency beside an inconclusive call is a rough fit, not a confirmed value.

test: qHTS Assay for Identifying the Cell-Membrane Permeable IMPase Inhibitors: Potentiation with Lithium; conditions: CHO-M1 cells, IP1 TR-FRET (IP-One), carbachol + lithium; series mostly up to 59.4 µM; activity, negative = IMPase inhibition: at the top concentration; also: nearly all actives have a fitted effect of over 50% in size;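 as to activity, negative = IMPase inhibition: plate controls were basal vehicle for no effect and high inhibitor control for full effect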
Outline: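 Concentration–response in CHO-M1 cells, lithium-potentiated; 30 min at 37C. IP1 detected by competitive TR-FRET after 10 min lysis at RT. Hill-fitted AC50.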
Potency is read from the fitted curve at half-maximal effect.

Potency, active:
Cc1ccc(S(=O)(=O)NCC(=O)OCC(=O)c2ccc(Br)s2)cc1 10 µM, CCCCn1c(SCC(=O)NC(C)CC)nc2ccc(N3CCOCC3)cc2c1=O (centres undefined) 11.2 µM, CCCC(=O)Nc1nc(C)c(C(C)=O)s1 8.91 µM, Cc1ccc(S(=O)(=O)NCCNC(=O)c2cc(OCC(F)(F)F)ccc2OCC(F)(F)F)cc1 11.2 µM, O=C(COC(=O)c1cccc(Br)c1)Nc1cccc2c1C(=O)c1ccccc1C2=O 11.2 µM, C=CCN1C(=O)/C(=C2/Sc3ccc(OC)cc3N2C)SC1=NCc1ccccc1 2 µM, O=C(COC(=O)c1cc(-c2cccs2)nc2ccccc12)NCc1ccco1 7.94 µM, Cc1cccc(-c2nnc(-c3ccc(N)cc3)o2)c1 12.6 µM, OC[C@@H]1[C@@H](c2ccc(Cl)cc2)C(c2ccccc2)=NN1c1ccccc1 22.4 µM

Potency, inconclusive:
Cc1cc(NC(=O)c2cc(-c3cccc(Cl)c3)on2)no1 10 µM [inhibitor, partial curve], O=C(Oc1cccc(-n2cnnn2)c1)c1sc2ccccc2c1Cl 7.94 µM [inhibitor, partial curve], O=C(CSc1ccc2nnc(-c3ccc(Cl)cc3)n2n1)N1CCCc2ccccc21 28.2 µM [inhibitor, single point], COc1cc(OC)cc(C(=O)N=c2sc3ccccc3n2C)c1 22.4 µM [inhibitor, single point], COc1ccc(-n2nc(C(=O)NCC(=O)Nc3ccccn3)c3ccccc3c2=O)cc1 22.4 µM [inhibitor, single point], COC(=O)C1=CN(CCOC23CC4CC(CC(C4)C2)C3)C=C(C(=O)OC)C1c1ccsc1 3.55 µM [inhibitor, full curve, poor fit], C=CCOC(=O)c1sc(NC(=O)c2ccc(OC)cc2)nc1C 28.2 µM [inhibitor, single point], Cc1sc2nc(SCC(=O)NCc3ccco3)n(CCc3ccccc3)c(=O)c2c1C 28.2 µM [inhibitor, single point], NC(=O)COC(=O)CNC(=O)c1sc2ccccc2c1Cl 20 µM [inhibitor, partial curve, poor fit], COCCN1C=C(C(=O)OC)C(c2cc3c(cc2Br)OCO3)C(C(=O)OC)=C1 10 µM [inhibitor, single point], CC(=O)c1ccc(Nc2nc(C)nc3c2oc2ccccc23)cc1 28.2 µM [inhibitor, single point], COc1ncc2nc(-c3cccs3)c(=O)n(Cc3ccc(F)cc3)c2n1 11.2 µM [inhibitor, partial curve], O=C(COC(=O)c1cc(-c2ccc(Cl)s2)nc2ccccc12)NCc1ccco1 28.2 µM [inhibitor, single point], CC(NC(=O)CCSc1nc(-c2ccc3c(c2)OCO3)cc(C(F)(F)F)n1)c1ccccc1 (centres undefined) 11.2 µM [inhibitor, partial curve], CSc1nc2sc3c(c2c2nnnn12)CCCC3 12.6 µM [inhibitor, partial curve], Cc1cccc(NC(=O)c2cc(NC(=O)c3ccccc3)ccc2N2CCCCC2)c1 28.2 µM [inhibitor, single point], C#CCOC(=O)CCCC(=O)NCCCCCCCC 6.31 µM [inhibitor, full curve, poor fit], COc1ccc(C2(C(N)=O)CCCCC2)cc1OC 31.6 µM [inhibitor, single point], CCNC(=S)N1CCc2cc(OC)c(OC)cc2C1COc1ccc(F)cc1 (centres undefined) 2.82 µM [inhibitor, partial curve], CCN1CCCc2cc(CN(CCN3CCOCC3)C(=S)Nc3ccc(OC)c(OC)c3)ccc21 15.8 µM [inhibitor, single point], CCC(C)(C)NC(=O)c1ccc2c(c1)S(=O)(=O)c1ccccc1C2=O 28.2 µM [inhibitor, single point], COC(=O)c1cc(S(=O)(=O)NC2CCN(Cc3ccccc3)CC2)cn1C 28.2 µM [inhibitor, single point], Cc1ccc(-c2cc(-c3ccccc3)c(C#N)c(Br)n2)cc1 11.2 µM [inhibitor, partial curve], COC(=O)c1ccc2c(c1)C(=O)/C(=C/c1ccc(C)cc1)O2 28.2 µM [inhibitor, single point], O=c1[nH]c(S)nc2sc3c(c12)CCCC3 10 µM [inhibitor, single point], CCOC(=O)c1sc2nc(SC)nc(-c3ccccc3)c2c1N 10 µM [inhibitor, partial curve], COc1ccc(-c2cc(=O)c3cc(C)ccc3[nH]2)cc1 39.8 µM [inhibitor, single point], CN(C)C(=O)c1ccc(-c2nccc(Nc3ccc(F)cc3)n2)cc1 10 µM [inhibitor, single point], Cc1cc(C)c(N=C2CCCN2Cc2ccccc2)c(C#N)c1 3.16 µM [inhibitor, single point], CCOc1ccccc1NC(=O)Cn1cnc2c(cnn2-c2ccc(C)c(C)c2)c1=O 15.8 µM [inhibitor, single point], N#Cc1c(N)nc(N2CCCC2)c(C#N)c1-c1ccc(Cl)cc1 22.4 µM [inhibitor, single point], CCOC(=O)N1CCN(S(=O)(=O)c2ccc(C(=O)Nc3ccc4c(c3)C(=O)NC4=O)cc2)CC1 28.2 µM [inhibitor, single point], S=c1[nH]c(-c2ccc(Br)cc2)cn1CCc1ccccc1 12.6 µM [inhibitor, single point], CSc1nc(-c2ccccc2)cc(C)c1C#N 20 µM [inhibitor, single point], O=C(CSc1nc2c(c(C(F)(F)F)n1)CCc1ccccc1-2)NCc1ccco1 25.1 µM [inhibitor, single point], Cn1c(-c2cnn(-c3ccccc3)c2N)n[nH]c1=S 28.2 µM [inhibitor, single point], N=C1C(c2nc3ccccc3[nH]2)=C(O)CN1c1ccccc1 10 µM [inhibitor, single point], COCCN=C1Sc2nc3cc4c(cc3cc2CN1CC1CCCO1)OCO4 (centres undefined) 25.1 µM [inhibitor, single point], O=C(Nc1cccc(-c2nc3ccccc3s2)c1)c1cc(=O)c2ccccc2o1 28.2 µM [inhibitor, single point], C=CCn1c(SCc2nc3ccccc3c(=O)[nH]2)nnc1-c1cc2cc(Cl)ccc2o1 25.1 µM [inhibitor, partial curve, poor fit], COCCn1nnnc1CN(Cc1cc2cc(OC)c(OC)cc2[nH]c1=O)C1CCCC1 31.6 µM [inhibitor, single point], CCSc1nc2c(sc3ccccc32)c(=O)n1C(C)C 17.8 µM [inhibitor, single point]

Potency, inactive:
O=[N+]([O-])c1ccccc1Nc1ccccc1, C=CCOC(=O)NC(c1ccc(F)c(F)c1)C(C(=O)COC)C(=O)OC (centres undefined)

activity, negative = IMPase inhibition, inactive:
COc1ccc(NC(=O)Nc2ccc(OC)cc2)cc1 28.4% [at 38.3 µM], COC(=O)c1cc(=O)c2c(C)nc(C(Cl)(Cl)Cl)nc2[nH]1 -2.6%, COc1ccccc1-c1cc(C(=O)NCc2cccs2)no1 -4.87% [at 38.3 µM], Cc1noc(C)c1C(=O)N1CCC[C@@]2(CCN(c3cccc(-c4ccccc4)c3)C2)C1 16%, CS(=O)(=O)N1CCC2(CCCN(c3ccncc3)C2)CC1 14.8%, CC1=NN2C(=N)/C(=C\c3ccc(SCc4ccccc4)o3)C(=O)N=C2S1 38.4% [at 38.3 µM], O=C(CNCCc1ccccc1)N1CCc2ccccc2C1 1.69%, Cc1ccc([N+](=O)[O-])c(C)c1 4.88%, CC(C)c1onc(C(=O)N2CCOCC2)c1[N+](=O)[O-] -7.06%, Cc1ccc2[nH]c3c(c2c1)CN(C(=O)CN1CCN(Cc2ccc4c(c2)OCO4)CC1)CC3 10.2% [at 38.3 µM], Cc1ccccc1CSc1nc2c(c(=O)[nH]1)CCC2 -0.787% [at 38.3 µM], O=[N+]([O-])c1ccc(Cl)c2c1C1C=CCC1C(c1ccccn1)N2 (centres undefined) 10.1%, CCc1ccc(-c2nc(CSCC(=O)N3CCN(c4ncccn4)CC3)c(C)o2)cc1 9.78% [at 38.3 µM], N#Cc1ccccc1Cn1cc(/C=C/[N+](=O)[O-])c2ccccc21 22.5%, CC(=O)N1CCc2cc(C(=O)CN3CCC(C)CC3)ccc21 3.21% [at 38.3 µM], COc1ccc(N2CC(=O)N(c3ccccc3)C2=S)cc1 0.59%, CC1CCCN(c2ccc(C(=O)Nc3nnc(C4CC4)s3)cc2[N+](=O)[O-])C1 (centres undefined) -11.2%, Cc1cccc(N=C2NN=C(c3c(C)[nH]c4ccccc34)CS2)c1 2.16%, COc1ccc(-c2nc(CN3CCN(c4ccccc4OC)CC3)c(C)o2)cc1 15.2%, Cc1cc(NC(=O)CN2CC3CC(C2)c2cccc(=O)n2C3)nc2c1c(=O)oc1ccccc12 (centres undefined) 23% [at 38.3 µM], COCCN(CCOC)S(=O)(=O)c1ccc(C(=O)Nc2nc(-c3ccccc3)c(C(=O)c3ccccc3)s2)cc1 -15.8%
